pIC50: −log10 of the molar value.
Key:
KRAS G12D [1] = molecular target: T1, KRAS G12D (Homo sapiens, UniProt P01116, G12D); assay: KRAS G12D Nucleotide Exchange Assay (HTRF, GDP-loaded KRAS G12D, SOS, BODIPY-GDP); settings: read-out: KRASG12D Nucleotide Exchange Assay (IC50), recombinant GDP-loaded KRAS G12D (20 nM), SOS (10 nM)
KRAS G12D [2] = molecular target: T1, KRAS G12D; assay: KRAS G12D RAF Disruption Assay (HTRF, GMPPNP-loaded KRAS G12D / GST-RAF1 RBD); settings: read-out: KRASG12D RAF Disruption Assay (IC50), recombinant GMPPNP-loaded KRAS G12D (5 nM), GST-RAF1 RBD (9 nM)

SMILES	pIC50 (KRAS G12D [1])	pIC50 (KRAS G12D [2])
C#Cc1c(F)ccc2cc(O)cc(-c3ncc4c(N5CCOCCC5C)nc(OC[C@]56CCC[C@H]5N(C)CCC6)nc4c3F)c12 (single isomer, unassigned) [Example 1-142]	8.00	–
C#Cc1c(F)ccc2cc(O)cc(-c3ncc4c(N5CCOCCC5C)nc(OC[C@]56CCC[C@H]5N(C)CCC6)nc4c3F)c12 (stereo partly drawn) [Example 1-93, 4-(2-{[(4aS,7aR)-1-methyl-octahydro-1H-cyclopenta [b]pyridin-4a-yl]methoxy}-8-fluoro-4-(5-methyl-1,4-oxazepan-4-yl)pyrido[4,3-d]pyrimidin-7-yl)-5-ethynyl-6-fluoronaphthalen-2-ol]	8.00	–
C#Cc1c(F)ccc2cc(O)cc(-c3nc(OC)c4c(N5CCOC6CC65)nc(OC[C@@]56CCCN5C[C@H](F)C6)nc4c3F)c12 (stereo partly drawn) [Example 9-40, 4-(4-(2-oxa-5-azabicyclo[4.1.0]heptan-5-yl)-8-fluoro-2-(((2R,7aS)-2-fluorotetrahydro-1H-pyrrolizin-7a(5H)-yl)methoxy)-5-methoxypyrido[4,3-d]pyrimidin-7-yl)-5-ethynyl-6-fluoronaphthalen-2-ol]	–	7.52
C#Cc1c(F)ccc2cc(O)cc(-c3ccc4c(N5CCCC(C#N)C5)nc(OC[C@@]56CCCN5C[C@H](F)C6)nc4c3F)c12 (single isomer, unassigned) [Example 2-41]	7.70	–

Source: patent US20240199584A1, “KRAS INHIBITORS” (Bristol-Myers Squibb Company, priority 2022, published 2024)
